Results as given in PMC12040169 (PLOS Biology, 2025).
Some of the results follow.

What follows are molecules tested on T1, C. trachomatis L2/434/Bu expressing GFP (CTL2-GFP). Conditions: total inclusion area; 28.5 h, 10 µM; inhibitor.
T1 construct: L2/434/Bu GFP intracellular growth in HeLa cells
Parameters: species or system HeLa; C. trachomatis total inclusion area by high-content imaging, normalised to DMSO
How it was run: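 Following bulk GFP and resorufin fluorescence reads, infected cells were fixed, Hoechst-stained and imaged on a high-content platform. Inclusion total area and number per well served as growth proxies; nuclei counts indicated host viability. MICs were derived as for the fluorescence assay.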
For `O=C(OCc1ccc2sccc2c1)N1CCOCC1` [CBK200163], the “% of control remaining” value was 86.7781.
With `CCn1cc(CN2CCCN(C(=O)c3ccc(Cl)cn3)CC2)cn1` [CBK304760] the “% of control remaining” value was 98.218.
With `COCCNC(=O)c1cnn2c(C)c(Cc3ccccc3C(F)(F)F)c(C)nc12` [CBK165210] the “% of control remaining” value was 112.625.
`CCOC(=O)N1CCN(S(=O)(=O)c2coc(C)c2C(=O)OC)CC1` [CBK057079] was tested, and the “% of control remaining” value was 79.0404.
With `CC(=O)N1CCc2sccc2C1c1ccc(NCc2ccc(F)cc2F)cc1` (stereo not drawn) [CBK286455] the “% of control remaining” value was 117.525.
In the case of `CCCc1oc(C(=O)O)cc1CN1CCOCC1` [CBK267984C], the “% of control remaining” value is reported as 96.3087.
For `CC(Cc1ccccn1)NC(=O)Cc1ccc2c(c1)CCCO2` (stereo not drawn) [CBK282115], the “% of control remaining” value was 89.0851.
`Cc1nc(C)c(C(=O)NC2CCCNC2=O)s1` (stereo not drawn) [CBK281628] was tested, and the “% of control remaining” value was 95.9304.
With `c1cnc(NCc2cc3n(n2)CCN(CC2CCCNC2)C3)nc1` (stereo not drawn) [CBK306981] the “% of control remaining” value was 64.947.
`Cc1ccc2nsnc2c1NC(=O)CSc1nccn1C` [CBK269411] was tested, and the “% of control remaining” value was 101.541.
`CCN(Cc1ccncc1)C(=O)NCCN1CCOCC1` [CBK145055] was tested, and the “% of control remaining” value was 97.1178.
`COc1ccc(Cn2c(=O)n(C(=O)CCc3cccc(OC)c3)c3ccccc32)cc1` [CBK106557] was tested, and the “% of control remaining” value was 72.9231.
In the case of `COc1ccc(C(O)c2coc3ccc(O)c(CN(C)C)c23)cc1` (stereo not drawn) [CBK263083], the “% of control remaining” value is reported as 101.769.
For `CCC(c1nc2ccccc2c(=O)n1-c1cccnc1)N1C(=O)c2ccccc2C1=O` (stereo not drawn) [CBK268300], the “% of control remaining” value was 120.216.
With `CCNS(=O)(=O)c1ccc2c(c1)N(Cc1csnn1)CC2` [CBK306161] the “% of control remaining” value was 51.0639.
In the case of `CSCCNC(=O)c1coc(COc2ccc3sc(C)nc3c2)n1` [CBK307004], the “% of control remaining” value is reported as 98.594.
For `O=C(/C=C/c1ccc(Br)cc1)N1CCN(Cc2ccc3c(c2)OCO3)CC1` [CBK074434], the “% of control remaining” value was 85.7828.
`Cc1cccc(Nc2[nH]c3cc(C)ccc3c2[N+](=O)[O-])c1` [CBK266303] was tested, and the “% of control remaining” value was 103.829.
With `COc1ccc(C(C)NC2CCN(c3nc(C)cs3)CC2)cc1F` (stereo not drawn) [CBK306362] the “% of control remaining” value was 61.0119.
In the case of `O=[N+]([O-])c1ccccc1S(=O)(=O)N1CCN(S(=O)(=O)c2ccc3ccccc3c2)CC1` [CBK264296], the “% of control remaining” value is reported as 120.523.
`O=C(Cn1c(C2CCNCC2)cc2cccnc21)N1CCCC1` [CBK285013] was tested, and the “% of control remaining” value was 106.19.
In the case of `O=C(c1sc2ccccc2c1Cl)n1cnc2ccccc21` [CBK262216], the “% of control remaining” value is reported as 112.425.
For `O=C1/C(=C\Nc2cccc3cccnc23)Sc2ccccc21` [CBK261647], the “% of control remaining” value was 66.5068.
`OCCOCCN1CCN(C(=S)Nc2ccccc2)CC1` [CBK018046] was tested, and the “% of control remaining” value was 62.714.
In the case of `COc1ccc(CN2CCN(C(=O)c3ccc(C#N)cc3)CC2)cc1` [CBK305698], the “% of control remaining” value is reported as 70.8857.
In the case of `COc1cc(Nc2cc(-c3ccc(F)c(F)c3)ncn2)cc(OC)c1OC` [CBK090711], the “% of control remaining” value is reported as 86.6219.
In the case of `Cc1c(-c2ccc(OCC(N)=O)cc2)nc2ccc(Br)cc2c1C(=O)O` [CBK287050], the “% of control remaining” value is reported as 156.897.
In the case of `Cc1ccc(NC(=O)CCc2c(C)nc(N3CCOCC3)[nH]c2=O)cc1` [CBK304985], the “% of control remaining” value is reported as 43.3799.
For `NC(=O)c1c(NC(=O)Cn2ccc([N+](=O)[O-])n2)sc2c1CCCC2` [CBK269139], the “% of control remaining” value was 68.6636.
For `CCN1C(=O)CC2(C1=O)C(=O)N(Cc1nc(OC)cc(OC)n1)c1ccccc12` (stereo not drawn) [CBK075510], the “% of control remaining” value was 106.161.
In the case of `Cc1nn(-c2ccccc2)c(C)c1CNC(=O)C1C2C=CC(C2)C1C(=O)O` (stereo not drawn) [CBK286877], the “% of control remaining” value is reported as 88.5342.
`Brc1c(OCCNCCN2CCOCC2)ccc2ccccc12` [CBK268576G] was tested, and the “% of control remaining” value was 98.693.
`COC(=O)[C@@H](C)NC(=O)[C@@H]1CN(C(=O)NC(C)C)CCN1C(=O)c1cccs1` [CBK289624] was tested, and the “% of control remaining” value was 87.2687.
With `O=P(O)(CCc1ccccn1)CN1CCCCC1` [CBK262312] the “% of control remaining” value was 95.0523.
In the case of `Cc1[nH]c(=O)[nH]c(=S)c1C(=O)Nc1ccc(Cl)cc1C#N` [CBK115502], the “% of control remaining” value is reported as 118.274.
`O=C(O)c1ccc(CNC2CC(=O)N(c3ccc(F)cc3)C2=O)cc1` (stereo not drawn) [CBK286727] was tested, and the “% of control remaining” value was 92.2553.
In the case of `O=C(O)COc1noc2nc3c(cc12)CCCCC3` [CBK269429], the “% of control remaining” value is reported as 98.4196.
`CCCNC(=O)Cn1nc(CC)n2c(cc3ccsc32)c1=O` [CBK284130] was tested, and the “% of control remaining” value was 84.3271.
`CCOc1ccccc1NC(=O)NCc1cccnc1` [CBK267026] was tested, and the “% of control remaining” value was 128.26.
For `CCOC(=O)N1CCC(NC(=O)N(CCc2ccccc2)Cc2ccccc2)CC1` [CBK155359], the “% of control remaining” value was 74.6099.
For `CN1CCc2c(sc3nc(SCc4ccc(Cl)c(Cl)c4)n(-c4ccccc4)c(=O)c23)C1` [CBK263706], the “% of control remaining” value was 101.132.
In the case of `O=C1CCC(=O)N1CCOc1nccnc1N1CCNCC1` [CBK074030T], the “% of control remaining” value is reported as 89.1349.
`O=c1[nH]c2ncc(-c3ccco3)nc2n1CCCN1CCOCC1` [CBK064319] was tested, and the “% of control remaining” value was 103.289.
`CN(C)CCN1CCN(c2cc(Nc3ccc(N(C)C)cc3)nc3ccnn23)CC1` [CBK037211] was tested, and the “% of control remaining” value was 131.516.
For `CC(C)[C@H](NC(=O)C1CC(=O)N(c2ccc(F)cc2)C1)C(=O)N1CCCC1C(=O)O` (stereo partly drawn) [CBK286723], the “% of control remaining” value was 101.432.
`C=C(C)CNc1ccccc1C(=O)OC` [CBK003656C] was tested, and the “% of control remaining” value was 103.374.
`COCCn1cnnc1C(C)NC(=O)c1nc2ccccc2[nH]1` (stereo not drawn) [CBK307366] was tested, and the “% of control remaining” value was 55.0032.
With `O=C(O)C1CC=CCC1C(=O)N1CCN(C(=O)c2ccco2)CC1` (stereo not drawn) [CBK299784] the “% of control remaining” value was 85.8007.
With `Cc1cccc(CCNC(=O)C2CN(C(=O)C3CCN(C)CC3)C2)c1` [CBK281967] the “% of control remaining” value was 101.337.
With `COc1ccc(-c2cnc(N)c(NCC(C)C)n2)c(OC)c1OC` [CBK063855] the “% of control remaining” value was 82.8349.
In the case of `COC(C)(C)C(=O)N1CCC2(C/C=C/Cc3ccccc3OCC(=O)NCCNC2=O)CC1` [CBK292001], the “% of control remaining” value is reported as 97.9102.
For `COc1ccccc1CC(C)NC(=O)CCn1ccc2ccncc21` (stereo not drawn) [CBK285175], the “% of control remaining” value was 116.734.
With `COc1cc2c(cc1OC)CN(CC1CCCCC1)CC2` [CBK138321] the “% of control remaining” value was 72.8761.
In the case of `OC(Cn1nc(-c2ccccc2)cc1-c1ccccc1)Cn1c2ccc(Cl)cc2c2cc(Cl)ccc21` (stereo not drawn) [CBK261418], the “% of control remaining” value is reported as 77.0802.
`COc1cccc(C(NC(=O)C2CCN(Cc3cccs3)CC2)c2cnccn2)c1` (stereo not drawn) [CBK148572] was tested, and the “% of control remaining” value was 82.6743.
`CC(=O)Nc1cccc(-n2c(C)nnc2SCC2CCCCC2)c1` [CBK304590] was tested, and the “% of control remaining” value was 67.1503.
For `Cc1cc(C)nc(N2CCCC(O)(c3nc(C)c(CCOc4ccccc4)s3)CC2)n1` (stereo not drawn) [CBK285924], the “% of control remaining” value was 96.0256.
In the case of `CCOc1cc(C2Nc3ccccc3NC3=C2C(=O)C(C(=O)OC)C(C)C3)ccc1OC(C)C` (stereo not drawn) [CBK268456], the “% of control remaining” value is reported as 140.786.
`NC(=S)NC(=O)CN1C(=O)c2ccccc2C1=O` [CBK264111] was tested, and the “% of control remaining” value was 112.435.
`CC(C)(C)OC(=O)N1CCC(c2nc3ccccc3cc2N)CC1` [CBK285038] was tested, and the “% of control remaining” value was 98.4737.
`CCC(CO)Nc1nccnc1-c1cccs1` (stereo not drawn) [CBK036800] was tested, and the “% of control remaining” value was 123.471.
In the case of `Cc1nc(C(Cc2ccsc2)NC(=O)c2cc[nH]n2)sc1C` (stereo not drawn) [CBK284776], the “% of control remaining” value is reported as 84.2229.
With `Cc1nc(-c2cc3c(s2)CCN(Cc2ccc(CO)o2)C3)cs1` [CBK306411] the “% of control remaining” value was 117.198.
In the case of `Cc1ccc(-c2nc(C)sc2CC(=O)N(C)CCN(C)C)cc1` [CBK282175], the “% of control remaining” value is reported as 97.4695.
`O=C(CCSc1ccccc1)Nc1ccccc1C(=O)N1CCCCC1` [CBK269545] was tested, and the “% of control remaining” value was 107.253.
`O=C1CCC(=O)N1CCOc1nccnc1OC1CCN(Cc2ccc(Cl)cc2)CC1` [CBK084338] was tested, and the “% of control remaining” value was 95.1818.
`Cc1ccc(Cn2nnc3c(O)nc(C4CCN(C(=O)CC(C)(C)C)CC4)nc32)cc1` [CBK293970] was tested, and the “% of control remaining” value was 87.8544.
In the case of `O=C(c1cc(F)c(F)cc1F)N1CCC2(CCCN(C/C=C/c3ccccc3)C2)C1` (stereo not drawn) [CBK132001], the “% of control remaining” value is reported as 88.7097.
For `COc1ccccc1C(=O)N1CCC(c2nc(C)n3ccccc23)C1` (stereo not drawn) [CBK282221], the “% of control remaining” value was 95.2316.
In the case of `CCCC/C=C/c1cncc(NC2CCC(O)CC2)n1` (stereo not drawn) [CBK037840], the “% of control remaining” value is reported as 95.2583.
In the case of `CC(=O)Nc1ccc(N2C(=O)CSC2c2ccccc2[N+](=O)[O-])cc1` (stereo not drawn) [CBK294443], the “% of control remaining” value is reported as 99.002.
For `COc1ccc(N(CC(=O)Nc2cccc3cccnc23)S(=O)(=O)c2ccc(C)cc2)cc1` [CBK263965], the “% of control remaining” value was 109.693.
In the case of `O=C(NCCN1CCCC1)C1CCCN(c2nc3c(-c4ccccc4)csc3c(=O)[nH]2)C1` (stereo not drawn) [CBK215507], the “% of control remaining” value is reported as 97.5195.
With `COc1cc(CO)c(-c2c[nH][nH]c2=O)cc1OC` [CBK009476] the “% of control remaining” value was 64.9852.
With `Cc1cc(S(=O)(=O)NCCC#N)c(C)cc1Cl` [CBK043680] the “% of control remaining” value was 108.861.
In the case of `CCOC(=O)[C@H]1CN(C(=O)C(C)(C)NC(=O)OC(C)(C)C)C[C@@H]1c1cc2cc(C)ccc2o1` [CBK001599], the “% of control remaining” value is reported as 107.566.
With `Cc1ccc(S(=O)(=O)N(CC(=O)O)c2ccccc2C)cc1` [CBK262423] the “% of control remaining” value was 105.056.
In the case of `Cc1ccc(C2=NN(C(=O)CCC(=O)O)C(c3ccc4nccnc4c3)C2)cc1` (stereo not drawn) [CBK287802], the “% of control remaining” value is reported as 103.054.
With `O=C(CCc1ccccc1)N1CCC(c2cccc(Cc3cccc(F)c3)n2)CC1` [CBK286219] the “% of control remaining” value was 103.966.
With `CCn1cc(S(=O)(=O)NCc2ccccc2OC)cn1` [CBK270304] the “% of control remaining” value was 68.9043.
In the case of `Cc1cc(C)nc(SCCN2CCOCC2)n1` [CBK261769C], the “% of control remaining” value is reported as 88.8652.
